Assay results reported in the RNAGym collection of RNA variant scans (doi:10.7554/elife.90254).
The source gives no read counts; variants with many changes may rest on few reads.

B1: LINE1-mini (parent)
chain: GGCAGAGCUCAACACAGCGUGGCAAAGUGGCUGUGGCUAGACUGCC

Variants of: B1
Experiment: self-cleavage, relative activity (ratio to wild type); higher = more cleavage; in vitro, sequencing; the parent is a self-cleaving ribozyme

Row | Variant | self-cleavage
1 | U20G G35U C37A | 0.08
2 | G21C G29A G30A | 0.61
3 | G21U C23G A26C | 0.12
4 | G21C C23G G29A G36A U38A C45U | 0.03
5 | G21C G27U G29A | 1.37
6 | G21U G29A C37U | 0.01
7 | G21A G40U U43A | 0.18
8 | G21A A25G G27C G29A | 0.27
9 | G21A U34A C37G A39U G44U | 0.03
10 | G21U C31A G33U A41U | 0.08
11 | U20G U28A U43C | 0.02
12 | G21A A26G U38A | 0.87
13 | G21A C31G U32A G33U | 0.07
14 | U20C G35U A41U | 0.04
15 | U20G A39C A41C | 0.05
16 | U20G U28A C45U | 0.78
17 | U20C U34C A41G | 0.05
18 | G21C C31G U32C | 0.1
19 | G21U A24U G36C G44A | 0.09
20 | G21U C31A U32G C45A C46G | 0.01
21 | U20G U28G G29A | 0.46
22 | G21C C31A U34A G36A | 0.03
23 | U20G G21U C45A | 1.56
24 | G21U G29U G35U | 0.03

Row | Variant | self-cleavage
25 | G21A C23U A26U G27C G29U U34C | 0.28
26 | G21A A24C U38A | 0.76
27 | G21U G22A G33A | 0.52
28 | G21A A25U U34C G35U | 0.22
29 | G21C G36A C42A | 0.1
30 | G21C C31A U32G | 0.1
31 | U20G A25C U28C C45A | 0.16
32 | G21U G22A G35U A39G | 0.07
33 | U20G A25U G27C G44C | 0.04
34 | G21U A39C G40A | 0.06
35 | G21C G40C C45A | 0.11
36 | G21U G22C G29A G36U A41G | 0.15
37 | G21A A25C G27A | 0.72
38 | G21C G22U A26C | 0.17
39 | U20G G33U U34G | 0.04
40 | U20G A26G G29A C46A | 0.16
41 | U20G G36U C37U | 0.04
42 | G21C C23A G35A | 0.39
43 | G21U G27U U34G | 0.09
44 | G21U A26G G40U | 0.09
45 | U20G G21A A39G | 0.14
46 | G21A C31G U43G | 0
47 | U20G A25G A26U U32A | 0.01
48 | U20G G27A G35C | 0.06

Row | Variant | self-cleavage
49 | U20G G27A C37A G44A C46U | 0.31
50 | G21U C31A G36A A41U | 0.31
51 | U20G U28C U38C G44C | 0
52 | G21A C37U U38A | 0.22
53 | U20G G29U A39U | 0.24
54 | G21A U34C A41U C42A G44C | 0.05
55 | G21U C23U G40U | 0.14
56 | G21C G35U G36A | 0.26
57 | G21U G22A A25C U28C G35A | 0.07
58 | U20C U28A A41C | 0.01
59 | G21U A26C G35A G36C | 0.09
60 | U20G C23U A25C | 0.31
61 | U20G A24C C31A C45G | 0.01
62 | G21A A24G C37U | 0.09
63 | U20C G36C G44U | 0.01
64 | G21A C23A G35A C42G | 0.05
65 | G21C U34G G35A G36C | 0.06
66 | G21C G33C G40A | 0.04
67 | U20G G21C G44U | 0.62
68 | G21C C23U G33A G44C | 0.04
69 | G21C U38A G40C | 0.13
70 | U20G U32G U38G U43C | 0.01
71 | G21U C23G G35A | 0.11
72 | U20G G22A G30C G40U C46U | 0.03

Row | Variant | self-cleavage
73 | G21C A26G G29U | 0.1
74 | G21U C31U G40U | 0.03
75 | U20C G36A G40U C45G | 0.04
76 | G21U C23U A39G | 0.09
77 | G21U C23U A39C | 0.08
78 | G21C G27U A39C A41G | 0.05
79 | U20G G21U G27U | 1
80 | G21C A25G G29C | 0.09
81 | U20G U34C G35U | 0.24
82 | G21A G29U C45U | 2.67
83 | G21C C23A G27C | 2.43
84 | U20G G27U U34C U43C | 0.08
85 | G21C C23G G27A U38A G40U | 0.25
86 | G21U C23G U43G | 1
87 | G21C A26U U38C G44U | 0.06
88 | U20G G22C U32A C42A | 0.01
89 | G21A A24G G33U | 0.05
90 | G21A G35A C45G | 0.13
91 | G21C C31U C42U | 0.25
92 | U20G A24C G36C | 0.14
93 | G21C C31G U32G C37A C45U | 0.01
94 | G21C C31G G40U | 0.02
95 | G21C A24U A25U G40A | 0.07
96 | U20G G22C U28C | 0.35

Row | Variant | self-cleavage
97 | G21A C23U U38C | 0.54
98 | G21A U28C G30A C37A | 0.07
99 | G21U G27A G29U | 0.45
100 | G21C G22U A26G G44U | 0.32
101 | U20G U28C G29U C37U | 0.02
102 | G21A G35A G36U | 0.28
103 | G21U G22A G36C A39C | 0.02
104 | G21A G22A C31G | 0.07
105 | U20G G21C G27U | 0.42
106 | U20G G30U C31A G36A | 0.03
107 | G21C A24U U32G U38C A41C U43G | 0.01
108 | G21U G22C C46U | 0.59
109 | U20G A41G C46G | 0.08
110 | U20C U43C C46U | 0.03
111 | G21A G29A G36U | 0.02
112 | G21A U38C A41U | 0.79
113 | U20C G44C C46U | 0.04
114 | G21A G22C G29U G44C | 0.06
115 | G21A G22A C23U C37G | 0.01
116 | U20C U38A U43G | 0.01
117 | G21A A41U C46G | 0.25
118 | U20C U34A C46G | 0.37
119 | G21U G27U C42A | 0.2
120 | G21C A25C C37G | 0.01

Row | Variant | self-cleavage
121 | G21U C37A U43C C45U | 0.1
122 | G21A C23U G27C | 0.77
123 | G21C A24U G27C C37A G44U | 0.14
124 | G21A C23G G33A | 0.79
125 | G21A G30U G40C | 0.08
126 | G21A G22U G33U C46U | 0.09
127 | U20G A26C U28G A41G C45A C46U | 0
128 | G21A G36A C46A | 0.19
129 | G21A A39C C45G | 0.06
130 | G21U G22A U34C | 0.29
131 | U20G G27A G29A G35A | 0.21
132 | G21U C37U U38G | 0.02
133 | G21U A41U C45G | 0.08
134 | U20C G36U U38A | 0
135 | U20G A24G U43C | 0
136 | G21U A25U G27A | 0.79
137 | G21C G35C A39U | 0.08
138 | U20G G21A G30U | 0.4
139 | G21A G22A U32C G44A | 0.09
140 | G21A U28G G30A | 0.81
141 | U20G G22A G27C U28A G30C | 1.62
142 | G21C C23A U38G | 0
143 | G21A G27A G36U | 0.2
144 | U20G G30U C45U | 0.34

Row | Variant | self-cleavage
145 | G21C U32G A41G | 0.57
146 | G21A A24U U28A G35C C42U | 0.05
147 | U20G G22A G29U | 0.19
148 | G21C C23G A24U A25G | 0.12
149 | G21A G30A G33U | 0.05
150 | G21A G30A G33C | 0.04
151 | U20G A39G A41U | 0.03
152 | G21A A25C U32G G36A | 0.03
153 | U20G G21U A24C G30U G40U | 0.08
154 | G21U A26G C37A | 0.06
155 | U20G G21U A39U G44A | 0.06
156 | G21A G22U G27C | 0.21
157 | G21A G22U G27U | 0.23
158 | G21C G22C U28G | 0.07
159 | U20C U32A C42G | 0.03
160 | G21U A26C C31A A39U C42A | 0.05
161 | G21U C31G A41C | 0.35
162 | G21A C31A A41G | 0.06
163 | U20G A24U C37U | 0.02
164 | U20G G30U G44C | 0.07
165 | G21C G22U A39C C42G | 0.02
166 | G21A A24G G30U G33U C37A | 0.12
167 | G21C A25G U28A | 0.32
